In all, about 410,000 compounds went through this assay and about 1,200 (0.29%) were called active. Inconclusive means that the source gave no clear call. Such entries were picked first, then a sample of the others. Calls come from the whole dose curve; as a rule, active = well fitted activation curve with a large enough effect; inconclusive = small, poorly fitted or top-dose-only effect; inactive = flat fitted curve, though single readings scatter. Where the call is inconclusive, the potency comes from a doubtful curve fit.
Experiment: qHTS of Nrf2 Activators; note: nearly all actives have a fitted effect of over 65% in size
Conditions: AREc32 ARE-luciferase reporter (MCF7-derived line), luminescence, 24 h; series mostly up to 46.1 µM
Summary of the method: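 AREc32 cells carrying an ARE-driven firefly luciferase, 1000 cells/well in OPTI-MEM with 5% FBS, dosed after overnight attachment and incubated 24 hr at 37 deg C. Steady-Glo luminescence read after 30 min at RT.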
Potency is the fitted concentration of half-maximal effect; tags give direction and shape of the fitted curve.

Q: For `O=C(Nc1nc(-c2ccco2)c(-c2ccco2)s1)C1CCC1`, which Potency is on record?
A: Its Potency is inconclusive: 12.6 µM [activator, partial curve].

Q: With `NC1=NC(=O)/C(=C/c2ccsc2)S1` as the molecule, how does the Potency read?
A: The Potency was inconclusive: 31.6 µM [activator, single point].

Q: With `O=C(Nc1cccc(NC(=O)c2cccs2)c1)c1ccco1` as the molecule, how does the Potency read?
A: Its Potency is inconclusive: 10 µM [activator, partial curve, poor fit].

Q: For `Cc1ccc(C(Sc2ccccc2)C(Cn2cncn2)C(=O)c2ccccc2)cc1` (centres undefined), which Potency is on record?
A: Its Potency is inconclusive: 31.6 µM [activator, single point].

Q: Which Potency does the source give for `O=[N+]([O-])c1ccc(Oc2ccc(/C=N/O)cc2)nc1` here?
A: The Potency was “inactive”.

Q: For `COc1cccc(CNC(=O)c2cc3c(=O)n(Cc4cccnc4)ccc3nc2C)c1`, which Potency is on record?
A: Its Potency is “inactive”.

Q: With `Clc1cccc(-c2nc3nc4ccccc4nc3n2Cc2ccco2)c1` as the molecule, how does the Potency read?
A: Its Potency is inconclusive: 11.2 µM [activator, partial curve, poor fit].

Q: Which Potency does the source give for `COc1cc(C(=O)Oc2c(CN3CCOCC3)cc(Cl)c3cccnc23)cc(OC)c1OC` here?
A: Its Potency is inconclusive: 4.47 µM [activator, single point].

Q: Which Potency does the source give for `CC1(C)CC(N=c2cc(-c3ccccc3)oc3ccc(Cl)cc23)CC(C)(C)N1` here?
A: Its Potency is “inactive”.

Q: For `O=C(/C=C/c1ccco1)Nc1sc2c(c1C(=O)O)CCC2`, which Potency is on record?
A: Its Potency is inconclusive: 10 µM [activator, partial curve].

Q: With `Cc1ccc(C)c(S(=O)(=O)N2CCN(C(=O)Cc3sc(C)nc3-c3ccc(F)cc3)CC2)c1` as the molecule, how does the Potency read?
A: Its Potency is “inactive”.

Q: With `N#Cc1cncc(C#Cc2ccccc2)c1` as the molecule, how does the Potency read?
A: Its Potency is inconclusive: 20 µM [activator, single point].

Q: With `CCCSc1nc(-c2ccccc2)cc(C(F)(F)F)c1C#N` as the molecule, how does the Potency read?
A: The Potency was active: 11.2 µM.

Q: For `CCOCCCNC(=O)c1ccc(Cn2c(=O)c3cccn3c3cccnc32)cc1`, which Potency is on record?
A: Its Potency is “inactive”.

Q: With `Brc1cc(Cc2nnc(-c3ccccc3)o2)c(Br)s1` as the molecule, how does the Potency read?
A: The Potency was active: 8.91 µM.

Q: For `O=C(Nc1cccc2ccccc12)c1ccc([N+](=O)[O-])s1`, which Potency is on record?
A: Its Potency is inconclusive: 3.16 µM [activator, single point].

Q: Which Potency does the source give for `O=C(CC(=O)Nc1ccccn1)Nc1ccccn1` here?
A: The Potency was inconclusive: 22.4 µM [activator, single point].

Q: With `CCOc1ccc(S(=O)(=O)NCc2nc3cccnc3n2Cc2ccccc2OC)cc1` as the molecule, how does the Potency read?
A: The Potency was “inactive”.

Q: With `O=C(CSc1nnc(NC(=O)c2ccccc2)s1)NCc1ccco1` as the molecule, how does the Potency read?
A: Its Potency is active: 4.47 µM.

Q: For `O=C(Nc1nc2ccccc2[nH]1)c1cccc(Br)c1`, which Potency is on record?
A: The Potency was inconclusive: 3.16 µM [activator, partial curve, poor fit].

Q: With `O=C(NC(=S)Nc1cccc2ncccc12)c1cccs1` as the molecule, how does the Potency read?
A: Its Potency is inconclusive: 12.6 µM [activator, partial curve, poor fit].

Q: For `Cc1ccc(NCCC(=O)c2cccs2)cc1`, which Potency is on record?
A: Its Potency is inconclusive: 20 µM [activator, single point].

Q: For `c1coc(CNc2ncnc3[nH]ncc23)c1`, which Potency is on record?
A: Its Potency is inconclusive: 17.8 µM [activator, single point].

Q: With `O=C(CCN1C(=O)c2ccccc2C1=O)NCc1ccco1` as the molecule, how does the Potency read?
A: The Potency was “inactive”.

Q: Which Potency does the source give for `S=c1[nH]nc(-c2ccncc2)n1/N=C/C=C/c1ccco1` here?
A: Its Potency is inconclusive: 3.16 µM [activator, partial curve, poor fit].

Q: Which Potency does the source give for `Cc1cc(C)c2c3c(sc2n1)C(c1cccc(F)c1)C(C#N)=C(N)O3` (centres undefined) here?
A: Its Potency is inconclusive: 17.8 µM [activator, single point].

Q: For `CCOc1cc(C(=O)OCc2cc(=O)n3nc(C4CC4)sc3n2)cc(OCC)c1OCC`, which Potency is on record?
A: The Potency was inconclusive: 17.8 µM [activator, single point].

Q: With `CCN(CC)Cc1c(O)ccc2c1O/C(=C\C=C\c1ccccc1)C2=O` as the molecule, how does the Potency read?
A: The Potency was inconclusive: 17.8 µM [activator, single point].

Q: Which Potency does the source give for `N#Cc1sc2nc(-c3ccccc3)cc(C(F)(F)F)c2c1N` here?
A: Its Potency is inconclusive: 1.41 µM [activator, full curve, poor fit].

Q: With `COc1cc(Br)ccc1C1C(C(=O)Nc2ccc(C)cc2C)=C(C)Nc2nnnn21` (centres undefined) as the molecule, how does the Potency read?
A: Its Potency is “inactive”.

Q: Which Potency does the source give for `CCOC(=O)c1c(-c2ccc(C)cc2)csc1NC(=O)c1cccc(N2C(=O)CCC2=O)c1` here?
A: Its Potency is “inactive”.

Q: With `CCOC(=O)c1c(C)oc2c1c(C(c1ccncc1)N1CCOCC1)c(O)c1ccccc12` (centres undefined) as the molecule, how does the Potency read?
A: The Potency was inconclusive: 12.6 µM [activator, single point].

Q: With `COc1ccc(OC)c(CNC(=O)c2c(C)oc3ncn(C)c(=O)c23)c1` as the molecule, how does the Potency read?
A: The Potency was “inactive”.

Q: Which Potency does the source give for `CCCCC(CC)CNC(=O)c1cccs1` (centres undefined) here?
A: Its Potency is inconclusive: 17.8 µM [activator, single point].

Q: Which Potency does the source give for `NC1=C(Cl)C(=O)c2ccccc2C1=O` here?
A: The Potency was “inactive”.

Q: Which Potency does the source give for `c1ccc(-c2cc3c(-n4cccc4)ncnc3o2)cc1` here?
A: Its Potency is active: 3.16 µM.

Q: Which Potency does the source give for `COc1ccc(Cl)cc1NC(=O)c1ncn(-c2ccccc2)n1` here?
A: Its Potency is active: 8.91 µM.

Q: For `Cc1c(N2C(=O)/C(=C/c3ccccc3)SC2=S)c(=O)n(-c2ccccc2)n1C`, which Potency is on record?
A: The Potency was inconclusive: 22.4 µM [activator, single point].

Q: For `Cc1ccc(C)n1-c1cccc(C(=O)Nc2ccccc2)c1`, which Potency is on record?
A: Its Potency is inconclusive: 35.5 µM [activator, single point].

Q: Which Potency does the source give for `Cc1ccc2nsnc2c1NC(=S)NC(=O)c1ccco1` here?
A: The Potency was active: 6.31 µM.

Q: Which Potency does the source give for `O=C(CSc1ncnc2c1oc1ccccc12)c1cccs1` here?
A: Its Potency is active: 3.55 µM.

Q: Which Potency does the source give for `Oc1ccccc1C1CC(c2cccs2)=NC(c2ccc(Cl)cc2)N1` (centres undefined) here?
A: Its Potency is inconclusive: 3.16 µM [activator, full curve, poor fit].

Q: With `COc1ccc(OC)c(NC(=O)c2ccc(-c3cccs3)cc2)c1` as the molecule, how does the Potency read?
A: The Potency was inconclusive: 17.8 µM [activator, partial curve, poor fit].

Q: For `COC(=O)c1ccc(Cn2cnc3c(Cl)ncnc32)cc1`, which Potency is on record?
A: Its Potency is inconclusive: 17.8 µM [activator, single point].

Q: For `O=C(/C=C/c1cccc(F)c1)Nc1nccs1`, which Potency is on record?
A: Its Potency is active: 10 µM.

Q: Which Potency does the source give for `Cc1ccc(-n2c(=O)[nH]c3ncccc3c2=O)cc1` here?
A: Its Potency is “inactive”.

Q: Which Potency does the source give for `O=C(CSc1nnc(NC(=O)c2ccccc2F)s1)NCc1ccco1` here?
A: Its Potency is inconclusive: 17.8 µM [activator, partial curve, poor fit].

Q: With `O=C1c2ccccc2C(=Nc2ccccc2)C1c1cccc(Br)c1` (centres undefined) as the molecule, how does the Potency read?
A: The Potency was inconclusive: 11.2 µM [activator, partial curve, poor fit].

Q: For `O=C(c1cc(-c2ccccc2)on1)N1CCN(C(=O)c2ccco2)CC1`, which Potency is on record?
A: Its Potency is “inactive”.

Q: Which Potency does the source give for `COc1ccc(-c2cnc3c(NC(C)=O)cc(-c4ccsc4)cn23)cc1OC` here?
A: Its Potency is inconclusive: 12.6 µM [activator, single point].

Q: For `Cc1cccc(C(=O)Nc2cccc3cccnc23)c1`, which Potency is on record?
A: Its Potency is inconclusive: 11.2 µM [activator, partial curve, poor fit].

Q: With `CCCCCN1C(C(=O)c2ccccc2)=C(NC(C)=O)c2ccccc2S1(=O)=O` as the molecule, how does the Potency read?
A: The Potency was “inactive”.

Q: With `O=C(O)COc1cccc(NC(=O)c2ccccc2)c1` as the molecule, how does the Potency read?
A: Its Potency is “inactive”.

Q: For `Cc1ccnc(N/N=C/c2ccco2)n1`, which Potency is on record?
A: The Potency was inconclusive: 8.91 µM [activator, partial curve].

Q: For `CC1=C(C(=O)N(C)C)CC(CC(=O)NCCCN(C)C)C(=O)N1CCCN1CCCC1=O` (centres undefined), which Potency is on record?
A: The Potency was “inactive”.

Q: Which Potency does the source give for `Nc1ccc2cc3[nH]c4cc(N)ccc4c3nc2c1` here?
A: Its Potency is inconclusive: 3.16 µM [activator, single point].

Q: Which Potency does the source give for `O=C(N/N=C/C(Cl)=C\c1ccccc1)c1cnccn1` here?
A: Its Potency is active: 15.8 µM.

Q: For `O=C1C2=C(Nc3ccccc3SC2c2ccco2)c2ccccc21` (centres undefined), which Potency is on record?
A: Its Potency is inconclusive: 12.6 µM [activator, single point].

Q: With `CC[C@@H](CCC=C(C)C)C(=O)N(Cc1ccccc1)c1ccccc1` as the molecule, how does the Potency read?
A: Its Potency is “inactive”.

Q: With `O=C1C(c2ccnc3ccccc23)=C(O)c2ccccc21` as the molecule, how does the Potency read?
A: The Potency was inconclusive: 0.562 µM [activator, full curve, poor fit].

Q: For `O=C(O)c1ccc(/C=C2\COc3ccccc3C2=O)cc1`, which Potency is on record?
A: Its Potency is inconclusive: 8.91 µM [activator, partial curve].

Q: With `C=CCNCCOCCOc1ccccc1-c1ccccc1` as the molecule, how does the Potency read?
A: Its Potency is “inactive”.

Q: For `CC1(C)C(=O)OC(/C=C\c2cccc([N+](=O)[O-])c2)C(C)(C)C1=O` (centres undefined), which Potency is on record?
A: Its Potency is inconclusive: 35.5 µM [activator, partial curve, poor fit].

Q: With `Cc1noc(C)c1-c1ccc(C(=O)NCC2CC2)c2occc12` as the molecule, how does the Potency read?
A: The Potency was inconclusive: 35.5 µM [activator, single point].

Q: With `CC(=O)c1sc2nc(SCC(=O)N3CCCCC3)[nH]c(=O)c2c1C` as the molecule, how does the Potency read?
A: The Potency was inconclusive: 17.8 µM [activator, single point].

Q: Which Potency does the source give for `COc1ccc(Oc2c(Cl)cnn(-c3ccccc3)c2=O)cc1` here?
A: Its Potency is active: 12.6 µM.

Q: For `Cc1ccc([C@H]2C[C@@H](O)[C@H](n3cc(COC(=O)c4ccccc4)nn3)CN2CC2CCCCC2)cc1`, which Potency is on record?
A: The Potency was “inactive”.

Q: For `CCOC(=O)c1c(NC(=O)CN2CCN(c3cccc(Cl)c3)CC2)sc(C)c1C`, which Potency is on record?
A: The Potency was “inactive”.

Q: For `O=[N+]([O-])c1ccc(Cl)c(/C=N/n2c(-c3ccncc3)n[nH]c2=S)c1`, which Potency is on record?
A: The Potency was inconclusive: 2.51 µM [activator, full curve, poor fit].

Q: Which Potency does the source give for `CCOc1ccc(-n2nc3ccc(NC(=O)c4ccc(-c5cccc(Cl)c5)o4)cc3n2)cc1` here?
A: The Potency was “inactive”.

Q: With `CC(=O)Nc1ccc(-n2c(C)ccc2-c2ccccc2)cc1` as the molecule, how does the Potency read?
A: The Potency was inconclusive: 22.4 µM [activator, partial curve, poor fit].

Q: Which Potency does the source give for `O=C(CCl)Nc1ccc2c(c1)OCO2` here?
A: Its Potency is active: 14.1 µM.

Q: With `O=[N+]([O-])c1cc(S(=O)(=O)NCCCN2CCOCC2)ccc1Cl` as the molecule, how does the Potency read?
A: Its Potency is inconclusive: 25.1 µM [activator, single point].

Q: With `COc1ccc(O)c(-c2cc(-c3ccccc3[N+](=O)[O-])[nH]n2)c1` as the molecule, how does the Potency read?
A: The Potency was inconclusive: 12.6 µM [activator, partial curve, poor fit].
